# From PubChem BioAssay AID1347073 (National Center for Advancing Translational Sciences (NCATS), 2019)
# The campaign covered roughly 45,000 compounds. About 200 (0.44%) were called active. Not shown: some 7% with an inconclusive outcome. Calls come from the whole dose curve; as a rule, active = well fitted activation curve with a large enough effect; inconclusive = small, poorly fitted or top-dose-only effect; inactive = no such curve, though single readings can be large or run the other way. The list shows a part of the results.
# Assay: qHTS of TDP-43 Inhibitors: NCGC Sytravon Library Screen; note: 0% is about no effect; nearly all actives have a fitted effect of over 55% in size
# Conditions: yeast TDP-43 toxicity rescue, BacTiter-Glo growth, 24 h; series mostly up to 46.1 µM; growth rescue (activation): at the top concentration
# In short: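 TDP-43-expressing yeast, pregrown in raffinose, seeded at OD600 0.02 in galactose medium with compound for 24 hr at 30 deg C. Growth read by BacTiter-Glo luminescence, so rescue of toxicity appears as activation.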
row,SMILES,growth rescue (activation)
1,COc1ccccc1CC(=O)Nc1ccc2c(c1)OC1(CCCC1)O2,inactive: 6.47%
2,CCN(CC)CCNC(=O)c1cc2c(-c3cccc(OC)c3)nn(C)c2s1,inactive: 9.95%
3,COc1cc(/C=C/C(=O)O)ccc1OCc1ccc([N+](=O)[O-])cc1,inactive: 4.63%
4,O=C(CCSc1ccccc1)N1CCN(c2ccccc2F)CC1,inactive: 25.5%
5,COc1cc(/C=N/NC(=O)CC(=O)NC2CCCCC2)ccc1O,inactive: 5.17%
6,CCOC(=O)c1c(CSc2ccccc2)n(C)c2cc(Br)c(O)c(CN(C)C)c12,inactive: 14.7%
7,COCCNC(=O)C1CCCN(C(=O)c2cc(C)n(C(C)(C)C)n2)CC1 (stereo not drawn),inactive: 12.4%
8,COc1ccc2c(c1)nc(NCCCO)n2Cc1ccccc1,inactive: 0.298%
9,O=C(COC(=O)/C=C/c1ccccc1)NCc1ccccc1Cl,inactive: 27.4%
10,CS(=O)(=O)NCCSCc1c(F)cccc1Cl,inactive: -3.38%
11,Cc1nn(-c2ccccc2)c2sc(C(=O)c3c(N)n(C)c(=O)n(C)c3=O)cc12,inactive: 26.7%
12,CC(O)(c1cccc(F)c1)c1nc(-c2csc3ccccc23)cs1 (stereo not drawn),inactive: -37.6%
13,CCCCNC(=O)c1nn2c(C(F)(F)F)cc(-c3ccccc3)nc2c1Br,inactive: 9.46%
14,CC(C)(C)C(=O)NC(=S)Nc1ccc(S(=O)(=O)Nc2nccs2)cc1,inactive: -15.9%
15,Cn1cnnc1SC1c2cccc3cccc(c23)C1NS(=O)(=O)c1ccccc1 (stereo not drawn),inactive: -8.47%
16,Cc1ccccc1/C(N)=N/O,inactive: 7.78%
17,COC(=O)[C@H](C)NC(=O)/C=C/c1ccc(OC)cc1,inactive: 2.22%
18,O=C(Nc1ccc(-n2cnnn2)cc1)c1cn2ccccc2n1,inactive: -12.9%
19,CCOc1ccccc1/C=C(\C#N)C1=CCCC1,inactive: 9.85%
20,O=C(O)c1c2c(nc3ccccc13)-c1ccccc1CC2,inactive: 5.27%
21,COc1ccccc1N(CC(=O)NC1CCCC1)S(=O)(=O)c1ccc(C)cc1,inactive: 13.5%
22,CCN1CCN(c2ccc(NC(=O)c3ccc(Cl)c(N4CCCC4=O)c3)cc2)CC1,inactive: 7.78%

row,SMILES,growth rescue (activation)
1,CCc1cc(=O)oc2c(CNC(Cc3ccccc3)C(=O)O)c(O)ccc12 (stereo not drawn),inactive: 4.76%
2,CCC(CC)c1nnc(NC(=O)CCc2ccccc2)s1,inactive: 15.8%
3,Cc1cc2ccccc2c(=O)n1CC(=O)NC1CCCCCC1,inactive: 32.9%
4,COc1ccc(NC(=O)C2CCCN(S(C)(=O)=O)C2)c(OC)c1 (stereo not drawn),inactive: 0.662%
5,CCCCNC(=S)N/N=C/c1cc(C)ccc1C,inactive: -11.2%
6,COc1cc(OC)cc(C(=O)Nc2nc3ccc(S(C)(=O)=O)cc3s2)c1,inactive: 13.8%
7,COc1ccc([N+](=O)[O-])cc1NC(=O)COC(=O)/C=C/c1ccco1,inactive: 27.5%
8,CN(Cc1ccccc1)C(=O)CSc1nc2ccccc2[nH]1,inactive: 27.4%
9,CSc1nsc2nc(=O)c(/C=C3\C(C)=Nc4ccccc43)c(N)n12,inactive: -2.87%
10,COc1ccccc1Oc1ncnc2c1oc1ccccc12,inactive: 5.25%
11,CCC(C)c1ccc(-n2c(=O)c3ccccc3n3c(=S)[nH]nc23)cc1 (stereo not drawn),inactive: 12%
12,Cc1ccc(CNC(=O)C(c2ccccc2)c2ccccc2)cc1,inactive: 9.27%
13,COc1ccc(OC)c(NC(=O)c2sc3nc(C)cc(C)c3c2N)c1,inactive: -3.06%
14,CC(=O)Cn1c(C(F)(F)F)nc2ccccc21,inactive: 13.3%
15,Cc1cccc(OCC(=O)NCCNC(=O)c2cccnc2)c1,inactive: 10.2%
16,CNc1nc2c(c(=O)[nH]c(=O)n2C)n1CCCc1ccccc1,inactive: -2.71%
17,Cc1cccc(N(CC(=O)NCc2ccco2)C(=O)CCC(=O)Nc2nccs2)c1,inactive: 7.07%
18,N#C/C=C1/NC(=O)c2ccccc2S1,inactive: 4.17%
19,CC(C)c1ccc(C(=O)COC(=O)C(O)c2ccccc2)cc1 (stereo not drawn),inactive: 21.4%
20,COc1cc(/C=N/NS(=O)(=O)c2ccc3ccccc3c2)ccc1OCc1ccc(C(=O)O)cc1,inactive: 9.07%
21,CCOC(=O)c1ccccc1NC(=O)C=C(C)C,inactive: 16.6%
22,CC(C)(C)c1ccc(S(=O)(=O)N2CCNC(=O)C2)cc1,inactive: 19.1%

row,SMILES,growth rescue (activation)
1,O=C(c1cc([N+](=O)[O-])ccc1N1CCOCC1)N1CCCC1,inactive: 10.3%
2,CCOC(=O)C1=C(C)NC2=C(C(=O)OC2)C1c1ccccc1 (stereo not drawn),inactive: 16.1%
3,COc1ccc(/C=C/C(=O)NCCCc2ccccc2)cc1,inactive: 7.1%
4,Cn1c(=O)c2c(-c3ccccc3F)c3c(nc2n(C)c1=O)-c1ccccc1C3O (stereo not drawn),inactive: -2.6%
5,CCOc1ccc2nc(N/C(N)=N/C(=S)Nc3cccc(OC)c3)nc(C)c2c1,inactive: 15.9%
6,COc1cc(/C=N/NC(=O)c2cccc3ccccc23)cc(OC)c1OC,inactive: 2.28%
7,CC(=O)Oc1ccc2nc(-c3ccco3)oc(=O)c2c1,inactive: -7.28%
8,CC(=O)c1cnc2ncnn2c1C,inactive: 1.44%
9,Cc1nn(-c2ccccc2)c(Cl)c1/C=N/NC(=O)c1ccccc1NS(=O)(=O)c1cccs1,inactive: 10.2%
10,Cc1cc(C)cc(NC(=S)N2CCC(NC(=O)c3ccccc3C)CC2)c1,inactive: 14.9%
11,CCN(CC)Cc1c(C(=O)N/N=C(\C)c2ccncc2)nnn1-c1nonc1N,inactive: 2.89%
12,O=[N+]([O-])c1ccc2c(c1)C(O)n1nc(-c3ccccc3)nc1S2 (stereo not drawn),inactive: -16.8%
13,COCCNC(=S)N1CCN(C(=O)C(=O)Nc2ccc(C(=O)OC)cc2)CC1,inactive: 11.9%
14,CCCCOc1ccc(C(=O)NCC(=O)NNC(=O)c2ccco2)cc1,inactive: 6.63%
15,O=C(Nc1ccc2c(c1)OCO2)C1Cc2c(-c3cccnc3)ccnc2O1 (stereo not drawn),inactive: 8.16%
16,CN(C)CCCNC(=S)N(Cc1cccs1)Cc1cc2cc3c(cc2[nH]c1=O)OCCO3,inactive: 0.518%
17,COc1ccccc1CCC(=O)Nc1ccc2c(c1)c(=O)n(C)n2Cc1ccc(F)cc1,inactive: 10.8%
18,Cc1ccc(NC(=S)N/N=C/c2cccn2Cc2ccccc2F)cc1,inactive: -7.69%
19,CCOC(=O)C1=C(C)OC(N)=C(C#N)C1c1cc(SCC)oc1C (stereo not drawn),inactive: 12.3%
20,CCOc1cc(NC(=S)NCC2CCCO2)c(OCC)cc1NC(=O)C1CC1 (stereo not drawn),inactive: -6.24%
21,COc1ccc(S(=O)(=O)NCC2CCCO2)cc1NC(=O)c1ccc(Cl)cc1 (stereo not drawn),inactive: 3.44%
22,COc1cc(/C=N/NC(=O)Cn2cnc3ccccc3c2=O)ccc1O,inactive: 13.2%

row,SMILES,growth rescue (activation)
1,CCC(=O)NC(=S)Nc1ccc(NC(=O)c2cc3ccccc3o2)c(OC)c1,inactive: 6.38%
2,COc1c2ccccc2c(OC)c2ccccc12,inactive: -1.69%
3,Nc1c2c(nc3cccc(Cl)c13)N(c1ccccc1)CC2,inactive: 13.9%
4,COc1ccc(S(=O)(=O)NC(C)C(=O)Nc2cccc([N+](=O)[O-])c2)cc1 (stereo not drawn),inactive: 7.14%
5,COc1ccccc1Cn1c(=S)[nH]c2ccc(F)cc2c1=O,inactive: 12.9%
6,COCCNC(=O)C1CCCN(C(=O)COc2ccc(C(C)(C)C)cc2)CC1 (stereo not drawn),inactive: -0.945%
7,O=C(O)C1CC(O)CN1c1nc(Cl)ccc1[N+](=O)[O-] (stereo not drawn),inactive: -9.72%
8,Cc1cccc(NS(=O)(=O)c2cnc(Cl)c(Br)c2)n1,inactive: 8.57%
9,C=CCNC(=O)C1=NN(c2c(F)c(F)cc(F)c2F)C(=O)CC1,inactive: -14%
10,CN1CCN(CCC(=O)Nc2cccc(Br)c2)CC1,inactive: 3.06%
11,O=C(CCC(=O)Nc1ccc(F)cc1)N/N=C/c1cc([N+](=O)[O-])ccc1O,inactive: 14.8%
12,Cn1c(=O)c2c(nc(N/N=C/c3cccnc3)n2Cc2ccccc2)n(C)c1=O,inactive: 4.7%
13,Cn1c2ccccc2c(=O)c2c(=O)n(-c3ccc(F)cc3)c(-c3cccs3)nc21,inactive: 0.305%
14,Cc1c(Cl)cccc1NC(=S)N1CCC(C(N)=O)(N2CCCCC2)CC1,inactive: 0.569%
15,CCOC(=O)c1sc(NC(=O)C(C)Oc2ccc(OC)cc2)c(C(=O)OCC)c1C (stereo not drawn),inactive: -3.4%
16,CCc1nnc(NC(=O)CSc2nc(-c3ccccc3)nc3ccccc23)s1,inactive: 5.26%
17,COc1cc(NC(=O)c2ccccc2)c(OC)cc1NC(=O)CSc1[nH]c(=O)cc(C)c1C#N,inactive: 21.2%
18,Cc1cc(C)n(CC(=O)N2c3ccccc3Sc3ccc(C(F)(F)F)cc32)n1,inactive: 27.5%
19,COCCNc1ccc(S(=O)(=O)N2CCCC2)cc1[N+](=O)[O-],inactive: -8.3%
20,COc1ccc(NC(=O)COC(=O)CN2C(=O)C3CC=CCC3C2=O)c([N+](=O)[O-])c1 (stereo not drawn),inactive: 9.07%
21,COc1ccc(N(C)S(=O)(=O)c2cccc(C(=O)NCc3ccc4c(c3)OCO4)c2)cc1,inactive: -11.7%
22,Cc1nnc(NC(=O)CCC(=O)NCc2ccco2)s1,inactive: -0.19%

row,SMILES,growth rescue (activation)
1,COc1ccc(CN2CC(C(=O)NCCCN3CCCCCC3)CC2=O)cc1 (stereo not drawn),inactive: 13.5%
2,CC(=O)Nc1ccc(S(=O)(=O)NCc2nc(-c3cccc(C)c3)no2)cc1,inactive: -19.6%
3,CCOc1ccc(CN2CCNC(=O)C2CC(=O)N(C)Cc2nonc2C)cc1 (stereo not drawn),inactive: -16.7%
4,CCN1CCN(c2ncc(C(=O)N3CCN(c4ccccc4OC)CC3)c3ccccc23)CC1,inactive: 15.4%
5,COCCNC(=O)Cn1cnc2sc(C)c(S(=O)(=O)N3CCN(c4ccccc4OC)CC3)c2c1=O,inactive: -0.204%
6,CCOc1ccc(Br)cc1S(=O)(=O)Nc1ncn[nH]1,inactive: 6.86%
7,Cc1ccc(-n2nnnc2SCC(=O)NNC(=O)c2ccc([N+](=O)[O-])cc2)cc1,inactive: 0.116%
8,CCOC(=O)C1(C)CCN1C(=O)c1cccc(Cl)c1 (stereo not drawn),inactive: 5.13%
9,COc1ccccc1NC(=O)Cn1nnc(-c2ccccc2NC(=O)c2cccs2)n1,inactive: 14.2%
10,COc1ccc(NC(=O)CN(C)CC(=O)Nc2ccc(Cl)c(S(=O)(=O)N(C)C)c2)cc1,inactive: -4.16%
11,CCCc1nnc(SCc2ccc(C(=O)OC)o2)n1N,inactive: -11.1%
12,Cc1cc(C)n(-c2cc(O)c(-n3nc(C)cc3C)cc2O)n1,inactive: -16.6%
13,CCOC(=O)C1(C(F)(F)F)N=C(c2cccnc2)OC(N2CCCCC2)=N1 (stereo not drawn),inactive: 13.2%
14,COc1ccccc1NC(=O)CN(Cc1ccco1)C(=O)c1ccc(N2CCCC2=O)cc1,inactive: 2.44%
15,COc1ccc(C(CNC(=O)c2ccc(S(=O)(=O)Nc3ccc(F)cc3)cc2)N(C)C)cc1 (stereo not drawn),inactive: -3.68%
16,O=C(/C=C/c1ccccc1Cl)N(Cc1ccccc1)C1CCS(=O)(=O)C1 (stereo not drawn),inactive: 16.4%
17,Cc1ccc(Cn2nnc3c(=O)[nH]c(C4CCCN(C(=O)c5ccco5)C4)nc32)cc1 (stereo not drawn),inactive: 10.7%
18,CC(C)Cn1c(=O)c2sccc2n2c(CCCC(=O)NC3CCN(Cc4ccccc4)CC3)nnc12,inactive: 7.69%
19,CCN(CC)CCCNC(=O)c1cc(Cl)c(NC(=O)C2=C(C)OCCS2)cc1OC,inactive: 3.21%
20,CCCCNC(=O)c1[nH]c(C)c(C(C)=O)c1C,inactive: 5.07%
